From PubChem BioAssay AID743279 (National Center for Advancing Translational Sciences (NCATS), 2014)
The whole screen tested about 360,000 compounds, of which about 17,000 (4.7%) were called active. Inconclusive results, whose numbers are uncertain, are shown with a selection of clear calls. Rule as the data show it: active = activity change below about -50%; inconclusive = mostly about -30% to -49%; inactive = weaker than that.

Test: qHTS for Inhibitors of Inflammasome Signaling: IL-1-beta AlphaLISA Primary Screen
Details: THP-1 LPS/ATP IL-1B secretion, 16 h; at 57.5 µM, stronger effect = lower value
Outline: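 Secreted IL-1B measured by AlphaLISA bead assay after 16 h compound exposure of THP-1 cells; compounds (final up to 57.5 uM) added 1 h before LPS (250 ng/mL) and ATP (1.25 mM) stimulation; lower signal means less secretion.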
% is scaled to controls: 0 for no effect and ±100 for the full control effect.

Compound | activity change
CCOC(=O)N1CCN(S(=O)(=O)c2ccc(C(=O)N(CCCN(C)C)c3nc4ccc(CC)cc4s3)cc2)CC1 | active: -61.8%
COc1ccc(NC(=O)CCNC(=O)c2ccco2)cc1Cl | inactive: -7.2%
CCCc1nc(SCC(=O)NNC(=O)c2ccc(OC)cc2)c2ccccc2n1 | inactive: 9.46%
NC(=NCc1ccccc1)NN=Cc1ccnc2ccccc12 | active: -110%
CC(C)(C)[C@@H]1C=C(C(=O)Nc2ccccc2)O[C@H](OCc2ccc(CO)cc2)C1 | inconclusive: -31.6%
COc1ccc2cc3cc(C(=O)N4CCCCC4C)oc3nc2c1 (stereo unspecified) | inconclusive: -33.2%
CC(=O)Oc1ccc2ccccc2c1C(NC(=O)C(C)C)c1cccc([N+](=O)[O-])c1 (stereo unspecified) | active: -73.7%
CCN(CC)S(=O)(=O)c1ccc(/C(O)=C(\C#N)c2nc3ccccc3n2C)cc1 | inconclusive: -41.5%
CC(C)Oc1cccc(OCCN2C(=O)c3ccccc3C2=O)c1 | inconclusive: -31.1%
COC(=O)c1cc(S(=O)(=O)NCc2ccccc2OC)cn1C | inactive: 16.6%
CCn1cc(S(=O)(=O)Nc2ccc3c(c2)OCCO3)cn1 | inconclusive: -37.3%
O=c1c(-c2nc3ccccc3s2)cccn1Cc1ccccc1 | inactive: -1.28%
Oc1ccc(Nc2nc(-c3ccc(O)cc3)cs2)cc1 | inconclusive: -36.7%
CCC1Nc2ncnc(N3CCN(c4ccccn4)CC3)c2N(Cc2ccc(Cl)cc2)C1=O (stereo unspecified) | active: -59%
c1ccc(CSc2ncnc3c2ncn3C2CCCCO2)cc1 (stereo unspecified) | active: -50.3%
NC(=O)N/N=C/c1cn(-c2ccccc2)nc1-c1cccs1 | inconclusive: -48.7%
Fc1ccc(-c2nc(-c3cccs3)no2)cc1 | inactive: 0%
Cn1nnnc1SCC(=O)Nc1cc(C(C)(C)C)nn1-c1ccccc1 | inconclusive: -30.4%
O=C(Nc1ccc(Cl)c(Cl)c1)C1CCCCC1 | inactive: -18.6%

Compound | activity change
CCN(CC)CC(O)Cn1c2ccccc2c2ccccc21 (stereo unspecified) | inconclusive: -44.5%
CC(C)(C)c1cc(P(=O)(c2ccccc2)c2ccccc2)ccc1O | active: -66.1%
O=C(c1ccc(Br)o1)N1CCN(Cc2ccc3c(c2)OCO3)CC1 | inconclusive: -30.3%
C=CCOc1ccc2c(c1)CCC1C2CCC2(C)C(O)C(O)CC12 (stereo unspecified) | active: -74.5%
O=C(Nc1cc(SCCO)cc([N+](=O)[O-])c1)c1ccc(Br)o1 | inactive: -15.8%
COc1ccc(CN(C)CC2CCCN(CCc3ccccc3C)C2)cc1O (stereo unspecified) | active: -52.4%
Cc1ccc(C(=O)C[n+]2ccc(Cc3ccccc3)cc2)cc1 | inconclusive: -49%
CC1CCN(c2ccc(C(=O)N3CCOCC3)cc2[N+](=O)[O-])CC1 | inconclusive: -33.4%
Cc1cccc(OCC(=O)Nc2ccc(N3CCN(C(=O)c4ccccc4)CC3)cc2)c1C | inactive
CC(O)CNc1nc2c(c(=O)n(Cc3ccc(Cl)c(Cl)c3)c(=O)n2C)n1C (stereo unspecified) | inconclusive: -41.2%
COc1cc(C(=O)NCC(=O)OC(C)C(=O)Nc2ncc(Cl)cc2Cl)cc(OC)c1OC (stereo unspecified) | inactive: 0%
O=C(c1[nH]c(C(F)(F)F)nc1-c1ccccc1)N1CCN(C(=O)C2CCCO2)CC1 (stereo unspecified) | inactive: 0%
CCCCOc1ncnc2c1[nH]c1ccc(F)cc12 | inconclusive: -39.1%
CC(=O)Nc1ccc(N=Nc2ccccc2)cc1 | inactive: -21.1%
O=C(COc1ccccc1[N+](=O)[O-])N(Cc1ccco1)C1CCS(=O)(=O)C1 (stereo unspecified) | inactive: 0%
CC(C)CC1Nc2ncnc(N3CCN(c4ccccn4)CC3)c2N(Cc2ccc(Br)cc2)C1=O (stereo unspecified) | inconclusive: -38.7%
CCCCn1c(N)c(N(CCC(C)C)C(=O)c2ccccc2-n2cnnn2)c(=O)[nH]c1=O | inactive: 2.32%
CC(C)=C1C2CCC1C1C(=O)N(c3nc(-c4ccc(F)cc4)c(C)s3)C(=O)C21 (stereo unspecified) | inconclusive: -36.9%
COc1ccc(S(=O)(=O)N2CCCCC2c2cc(C(=O)Nc3ccc(F)c(Cl)c3)no2)cc1 (stereo unspecified) | inactive: -17.3%

Compound | activity change
Cc1nn2c(=O)[nH]cnc2c1Cl | inactive: 16.9%
COc1ccc(NC(=O)c2ccc(-c3ccc(C)c4ccccc34)o2)cc1 | inconclusive: -31.7%
CNC(=S)N1N=C(c2cccs2)CC1c1ccc(OC)cc1 (stereo unspecified) | inconclusive: -32.3%
CC1C(=O)N(Cc2cn(Cc3ccco3)nn2)CCS(=O)(=O)N1Cc1ccc(-c2ccccc2Cl)cc1 (stereo unspecified) | inconclusive: -38.8%
CC1(c2ccccc2)CC(C)(C)N(C(=O)C2CCCO2)c2ccccc21 (stereo unspecified) | active: -65.2%
COc1cc(/C(C#N)=C/c2ccccc2)c([N+](=O)[O-])cc1OC | active: -83.3%
O=[N+]([O-])c1ccc(N/N=C2\CC3CC=CC23)cc1 (stereo unspecified) | inconclusive: -38.9%
COc1ccccc1C(=O)NCCSCc1ccccc1Cl | inconclusive: -48.9%
COc1cccc(OC)c1C(=O)Nc1ccc(NC(=O)c2ccco2)cc1 | inconclusive: -35.9%
COc1cccc(NC(=O)CN(C)C(=O)c2ccccc2OCC(=O)Nc2cccc(C(F)(F)F)c2)c1 | inconclusive: -35.5%
Cc1cccc(C2=NNC(=O)C(c3ccc(Cl)cc3)C2)c1 (stereo unspecified) | inconclusive: -48.6%
O=C(NC(=S)NCCc1ccccc1)c1cccc(Cl)c1 | inactive: -25.7%
CCn1ccnc1CN1CCCC(C(=O)c2ccc3cc(OC)ccc3c2)C1 (stereo unspecified) | active: -96.2%
O=C(NCCO)c1cccc(Nc2nc(-c3ccccc3)c3cc(Cl)ccc3n2)c1 | inconclusive: -39.5%
Cc1ccc(C(=O)C[n+]2cc(-c3ccccc3)n3c2CCCCC3)cc1 | inconclusive: -47.1%
COc1cc(/C=C/c2noc(-c3ccccc3O)n2)ccc1OC(C)=O | inconclusive: -35.4%
O=C(CSc1nc(Nc2ccccc2)nc(N2CCOCC2)n1)Nc1ccc2c(c1)OCCO2 | inconclusive: -35.2%
O=C1N[C@H](Cc2ccccc2)COC(=O)[C@H](Cc2ccc(F)cc2)CC/C=C/C[C@@H]1CC(=O)N(CCO)Cc1ccccc1 | active: -54.8%
